Results from PubChem BioAssay AID504332 (National Center for Advancing Translational Sciences (NCATS), 2011).
Among all 350,000 compounds or so, about 31,000 (8.9%) were called active. The inconclusive results got no clear call from the source; some entries with a clear call stand among them for comparison. Calls come from the whole dose curve; as a rule, active = well fitted inhibition curve with a large enough effect; inconclusive = small, poorly fitted or top-dose-only effect; inactive = no such curve, though single readings can be large or run the other way. Where the call is inconclusive, the potency comes from a doubtful curve fit.

biological target: Histone-lysine N-methyltransferase EHMT2 (Homo sapiens) (UniProt Q96KQ7); assay: qHTS Assay for Inhibitors of Histone Lysine Methyltransferase G9a; conditions: G9a H3K9 monomethylation, AlphaScreen, 2 h; activity, negative = inhibition: at 59 µM (top of the series) unless noted; note: nearly all actives have a fitted effect of over 75% in size
Summary of the method: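 Readings reflect AlphaScreen signal from monomethyl-H3K9 antibody detection. HMT at 20 nM; substrate b-H3K9 500 nM; cofactor SAM 20 uM; 2 h RT reaction; compounds tested as titrations in qHTS with 15 min preincubation.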
% is set by controls: 0 for no effect and ±100 for the full control effect; potency is the fitted concentration of half-maximal effect; tags give direction and shape of the fitted curve.

Chain of UniProt Q96KQ7 (Q96KQ7 whole entry, looked up): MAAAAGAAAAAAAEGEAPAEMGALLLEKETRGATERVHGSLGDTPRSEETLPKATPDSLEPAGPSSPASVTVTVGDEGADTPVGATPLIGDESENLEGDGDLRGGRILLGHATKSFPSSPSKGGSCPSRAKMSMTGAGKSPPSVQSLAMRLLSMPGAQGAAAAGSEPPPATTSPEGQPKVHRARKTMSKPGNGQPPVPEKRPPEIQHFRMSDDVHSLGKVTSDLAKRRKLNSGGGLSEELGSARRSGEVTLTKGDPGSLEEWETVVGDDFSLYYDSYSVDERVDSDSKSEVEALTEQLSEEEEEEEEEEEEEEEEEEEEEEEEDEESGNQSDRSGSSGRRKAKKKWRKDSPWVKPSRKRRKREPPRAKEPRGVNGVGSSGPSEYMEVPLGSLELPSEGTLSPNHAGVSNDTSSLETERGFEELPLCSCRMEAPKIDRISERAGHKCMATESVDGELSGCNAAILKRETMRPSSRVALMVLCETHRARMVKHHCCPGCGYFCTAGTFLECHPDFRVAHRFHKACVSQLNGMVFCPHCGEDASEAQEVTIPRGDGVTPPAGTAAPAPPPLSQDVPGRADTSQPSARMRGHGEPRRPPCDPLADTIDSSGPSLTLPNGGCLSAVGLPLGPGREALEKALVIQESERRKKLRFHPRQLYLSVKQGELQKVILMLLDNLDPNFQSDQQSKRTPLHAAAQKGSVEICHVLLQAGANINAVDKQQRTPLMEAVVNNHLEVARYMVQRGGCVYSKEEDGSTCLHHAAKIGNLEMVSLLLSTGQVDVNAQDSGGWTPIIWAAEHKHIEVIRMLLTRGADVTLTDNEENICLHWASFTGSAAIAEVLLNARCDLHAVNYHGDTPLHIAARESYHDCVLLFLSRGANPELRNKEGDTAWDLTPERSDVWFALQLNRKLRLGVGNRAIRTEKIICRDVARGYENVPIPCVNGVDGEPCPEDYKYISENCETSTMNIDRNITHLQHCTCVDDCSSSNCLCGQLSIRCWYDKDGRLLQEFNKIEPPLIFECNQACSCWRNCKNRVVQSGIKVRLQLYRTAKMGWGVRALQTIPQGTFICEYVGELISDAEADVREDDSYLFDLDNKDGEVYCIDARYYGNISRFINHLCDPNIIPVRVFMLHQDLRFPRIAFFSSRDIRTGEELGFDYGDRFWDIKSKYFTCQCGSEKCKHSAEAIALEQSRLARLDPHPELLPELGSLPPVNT

Row | Compound | Potency | activity, negative = inhibition
1 | CCC1CN(C(=O)Nc2ccc(C)cc2)c2cc(C)ccc2O1 (configuration not stated) | inconclusive: 89.1 µM [inhibitor, single point] | 
2 | COc1ccc(NC(=O)c2cn(CC(C)C)c(=O)c3cc(OC)c(OC)cc23)cc1Cl |  | inactive: -28.7%
3 | NS(=O)(=O)c1ccc(CCNC(=O)CCCCCn2c(=O)[nH]c3ccccc3c2=O)cc1 |  | inactive: 7.65%
4 | COc1ccccc1C(=O)N1CCN(C2CCN(Cc3ccccc3)CC2)CC1 | active: 10 µM | 
5 | CC(C)CCNC(=O)CCc1nnc2ccc(N3CCC(C)CC3)nn12 |  | inactive: -7.69% [at 102 µM]
6 | O=C(Cc1ccc(Br)cc1)N1CCN(c2ccccc2O)CC1 | inconclusive: 10 µM [inhibitor, partial curve] | 
7 | O=C(NNC(=S)Nc1ccccc1)c1cccs1 | inconclusive: 39.8 µM [inhibitor, single point] | 
8 | O=C(NCCN1CCN(c2ccccc2)CC1)C1CCCN(S(=O)(=O)c2cnc[nH]2)C1 (configuration not stated) | inconclusive: 35.5 µM [inhibitor, single point] | 
9 | O=C(NC(=S)Nc1nc(-c2ccccc2)cs1)c1cccnc1 | active: 2.51 µM | 
10 | CC1(c2ccc(Cl)cc2Cl)OCC(Cn2ccnc2)O1 (configuration not stated) | inconclusive: 8.91 µM [inhibitor, full curve, poor fit] | 
11 | COc1nc(Nc2cccc(C(F)(F)F)c2)nc(OC)n1 |  | inactive: 6.07%
12 | Cc1ccc(C(C(=O)NCc2ccco2)N(CCc2ccccc2)C(=O)Cn2nnc3ccccc32)o1 (configuration not stated) | inconclusive: 35.5 µM [inhibitor, single point] | 
13 | CCOC(=O)c1c(C)n(C)c2ccc(OCC(O)CN3C(=O)c4ccccc4S3(=O)=O)cc12 (configuration not stated) |  | inactive: -26.6%
14 | O=C1c2[nH]nc(-c3ccccc3O)c2C(c2ccccc2)N1Cc1ccco1 (configuration not stated) | inconclusive: 14.1 µM [inhibitor, partial curve] | 
15 | CC(Oc1ccccc1)C(=O)Nc1ccc(S(=O)(=O)N2CCN(C)CC2)cc1 (configuration not stated) | inconclusive: 28.2 µM [inhibitor, partial curve, poor fit] | 
16 | Cn1c(N)c(N=O)c(=O)n(C)c1=O | active: 50.1 µM | 
17 | CCCC(=O)C1=C(O)C(C(=O)OC)C(C)(C)CC1=N (configuration not stated) | inconclusive: 79.4 µM [inhibitor, partial curve, poor fit] | 
18 | COc1ccc(-c2nc3c(c(SCC(=O)Nc4ccc(C(=O)O)cc4)n2)Cc2ccccc2O3)cc1 | active: 11.2 µM | 
19 | COc1cccc(N2CC(O)=C(c3nc4ccccc4c(=O)[nH]3)C2=N)c1 | inconclusive: 28.2 µM [inhibitor, single point] | 
20 | CCCCCCCCCc1nc2sc3c(c2c(=O)n1NC(=O)c1ccc([N+](=O)[O-])cc1)CC(C)(C)OC3 | inconclusive: 31.6 µM [inhibitor, single point] | 
21 | CCOc1ccc(-c2nnn(CC#N)n2)cc1OC |  | inactive: -9%
22 | CCCC(=O)Oc1ccc(N(C(=O)CCC)S(=O)(=O)c2cccs2)cc1 | inconclusive: 20 µM [inhibitor, full curve] | 
23 | CCCOc1c(OC)cccc1C1CC(=O)Nc2cc3c(cc21)OCO3 (configuration not stated) | inconclusive: 7.08 µM [inhibitor, partial curve, poor fit] | 
24 | Oc1c(C(c2ccccc2)N2CCC3(CC2)OCCO3)sc2nc(-c3ccco3)nn12 (configuration not stated) |  | inactive: -2.28%

Row | Compound | Potency | activity, negative = inhibition
25 | CC(Oc1cccc(Cl)c1)C(=O)Nc1ccc(S(=O)(=O)NC2=NCCCCC2)cc1 (configuration not stated) | active: 35.5 µM | 
26 | CCn1cc(C(=O)N(C)CC(OC)OC)c(=O)c2cc(S(=O)(=O)N3CCOCC3)ccc21 |  | inactive: 46.6% [at 102 µM]
27 | CCOC(=O)C1CCCN(c2c(C(=O)c3ccccc3)cnc3ccc(OC)cc23)C1 (configuration not stated) | active: 56.2 µM | 
28 | COc1ccccc1CN=c1c([N+](=O)[O-])nn(-c2ccc3c(c2)OCCO3)n1O | inconclusive: 15.8 µM [inhibitor, single point] | 
29 | Cc1ccc(NS(=O)(=O)c2cc(C(=O)Nc3cccnc3)ccc2C)cc1 | active: 79.4 µM | 
30 | CCC(=O)Nc1ccc(NC(=O)CSc2nc3cc4c(cc3cc2C)CCC4)cc1 |  | inactive: 12.7% [at 12.7 µM]
31 | COc1nc(NCCc2ccc(OC)c(OC)c2)nc(Nc2ccccc2)n1 | inconclusive: 89.1 µM [inhibitor, single point] | 
32 | O=C(Oc1cccc([N+](=O)[O-])c1)c1ccc2c(=O)n3c(nc2c1)CCC3 |  | inactive: 6.85% [at 12.7 µM]
33 | Cc1cccc(/C=N/NC(=O)C[n+]2ccccc2)c1 |  | inactive: 1.99% [at 0.501 µM]
34 | O=C(Nc1ccc2oc(-c3cccc4c(Br)cccc34)nc2c1)c1ccc(F)cc1 |  | inactive: -33.1%
35 | CCCn1c(CN2CCN(C(=O)OCC)CC2)nc2cc(NC(=O)C(C)C)ccc21 |  | inactive: 3.53% [at 102 µM]
36 | CCc1sc(N)nc1-c1ccccc1 | inconclusive: 31.6 µM [inhibitor, single point] | 
37 | O=C(COc1ccc(Cl)cc1[N+](=O)[O-])NC1CCCCC1 |  | inactive: -50.5% [at 102 µM]
38 | O=C(Cn1[nH]c(=O)c2ccccc2c1=O)NCC1COc2ccccc2O1 (configuration not stated) | inconclusive: 14.1 µM [inhibitor, single point] | 
39 | CC1CN(Cc2nc3c(c(=O)n(C)c(=O)n3C)n2CCN2CCOCC2)CC(C)O1 (configuration not stated) | inconclusive: 89.1 µM [inhibitor, single point] | 
40 | O=C1C2CCCN2C(c2ccccc2)N1c1nccs1 (configuration not stated) | inconclusive: 35.5 µM [inhibitor, partial curve, poor fit] | 
41 | c1ccc(CNc2nc(N3CCN(Cc4ccccc4)CC3)nc3ccccc23)cc1 |  | inconclusive: -74.2% [inhibitor]
42 | CC1(c2ccccc2)NC(=O)N(CC(=O)Nc2ccc([N+](=O)[O-])cc2)C1=O (configuration not stated) |  | inactive: -3.7% [at 102 µM]
43 | CCOC(=O)c1oc2ccc(S(=O)(=O)n3nc(-c4ccccc4OC)cc3N)cc2c1C | inconclusive: 31.6 µM [inhibitor, partial curve, poor fit] | 
44 | CCCCCOc1ccc(N2C(=O)CC(N(O)c3ccccc3)C2=O)cc1 (configuration not stated) | active: 50.1 µM | 
45 | O=C(Nc1ccc(Cl)c(C(F)(F)F)c1)NC1CC2CCCC(C1)N2Cc1ccccc1 (configuration not stated) |  | inactive: -8.48%
46 | COc1cc(CNCCN2CCOCC2)ccc1OCC(=O)NC(C)(C)C | inconclusive: 39.8 µM [inhibitor, single point] | 
47 | COC(=O)c1sc(=S)n(-c2cccc(Cl)c2)c1N |  | inactive: 29.9% [at 0.501 µM]
48 | CCCCCCc1cc2cc(-c3nnc(-c4cc(OC)c(OC)c(OC)c4)o3)c(=O)oc2cc1O | inconclusive: 7.08 µM [inhibitor, partial curve, poor fit] | 

Row | Compound | Potency | activity, negative = inhibition
49 | CCOCCCNC(=O)c1ccc2nc(CCc3ccccc3)oc2c1 |  | inactive: -2.67%
50 | CCCCNC(=O)CCCCn1c(=S)[nH]c2c([nH]c3ccc(OC)cc32)c1=O |  | inactive: -8.12% [at 102 µM]
51 | COc1cccc(-n2c(SCC(=O)Nc3cc(C)ccc3C)nc3c(oc4ccccc43)c2=O)c1 |  | inactive: -4.19%
52 | CCN(c1ccccc1)S(=O)(=O)c1ccc(OC)c(NC(=O)c2ccccc2OC)c1 |  | inactive: -16.6% [at 102 µM]
53 | Cc1ccc([N+](=O)[O-])cc1S(=O)(=O)N1CCNCC1 |  | inactive: -9.48% [at 102 µM]
54 | CCOC(=O)C(C)Sc1nnc(Cn2c(=O)sc3ccccc32)n1-c1ccccc1 (configuration not stated) | inconclusive: 89.1 µM [inhibitor, single point] | 
55 | Cc1cc(C)c(/C([O-])=C(/C(=S)Nc2ccc(SC(F)F)cc2)[n+]2ccccc2)cc1C | active: 35.5 µM | 
56 | CC(C)(C)c1ccc(OCCC(=O)OCC(=O)NC2CCCCC2)cc1 |  | inactive: 23% [at 102 µM]
57 | COc1cccc(CNC(=O)COC(=O)c2c(C)nn(-c3ccccc3)c2Cl)c1 | inconclusive: 39.8 µM [inhibitor, single point] | 
58 | COc1ccc(C(=O)/C=C2\Sc3ccccc3N2C)cc1 | inconclusive: 70.8 µM [inhibitor, partial curve, poor fit] | 
59 | Cc1ccc(/C(O)=C2\C(=O)C(=O)N(CCc3c[nH]c4ccccc34)C2c2cccnc2)cc1 (configuration not stated) | active: 50.1 µM | 
60 | O=C(NCCc1c[nH]c2ccccc12)C(=O)NCC1CCCO1 (configuration not stated) |  | inactive: 2.09% [at 102 µM]
61 | Cn1/c(=N/NC(=O)c2cccc(OC(F)F)c2)sc2ccccc21 | inconclusive: 0.398 µM [inhibitor, full curve, poor fit] | 
62 | CCOc1cc(N2CCOCC2)c(OCC)cc1NC(=O)CN1C(=O)NC2(CCCCC2)C1=O | inconclusive: 35.5 µM [inhibitor, single point] | 
63 | Cc1ccc(CNC(=O)c2cc3c(=O)n(C)c4ccccc4c3n2C)o1 | inconclusive: 89.1 µM [inhibitor, single point] | 
64 | CC(=O)c1ccc(NC(=O)CCS(=O)(=O)c2ccc3c(c2)n(C)c(=O)c(=O)n3C)cc1 | inconclusive: 63.1 µM [inhibitor, single point] | 
65 | COc1ccc(C(=O)/C=C/c2ccccc2)c(O)c1 | inconclusive: 28.2 µM [inhibitor, full curve] | 
66 | Cc1cccc(-c2nc(CN3CCN(C(=O)C4CCCO4)CC3)cs2)c1 (configuration not stated) | active: 70.8 µM | 
67 | O=C(COc1ncnc2sccc12)N1CCN(C(=O)c2ccco2)CC1 | active: 50.1 µM | 
68 | CC(C)Oc1cccc(C(=O)NC(=S)Nc2ccccc2N2CCOCC2)c1 | inconclusive: 12.6 µM [inhibitor, partial curve] | 
69 | CCn1c(SCC(=O)NCC2CCCO2)nnc1-c1ccccc1 (configuration not stated) | inconclusive: 12.6 µM [inhibitor, partial curve, poor fit] | 
70 | COc1cccc(CN2CCc3nc(Nc4ccc5c(c4)OCCO5)ncc3C2)c1 | inconclusive: 20 µM [inhibitor, single point] | 
71 | CC(C)c1nccn1S(=O)(=O)c1cc(Cl)ccc1Cl |  | inactive: -2.32%
72 | Cn1c2ccccc2c2c(C(=O)N3CCN(c4ccccc4)CC3)cn(C3CCCC3)c(=O)c21 | active: 50.1 µM | 
